Laboratory results taken from publication PMC11637378, “Optogenetic screening of MCT1 activity implicates a cluster of non-steroidal anti-inflammatory drugs (NSAIDs) as inhibitors of lactate transport” (PLOS ONE, 2024).

Molecular target: T1, R. norvegicus MCT1 (F360C) (UniProt P36035+P53987, F360C)
T1 sequence (P36035+P53987 with tags, fused parts or gaps P53987:F360C): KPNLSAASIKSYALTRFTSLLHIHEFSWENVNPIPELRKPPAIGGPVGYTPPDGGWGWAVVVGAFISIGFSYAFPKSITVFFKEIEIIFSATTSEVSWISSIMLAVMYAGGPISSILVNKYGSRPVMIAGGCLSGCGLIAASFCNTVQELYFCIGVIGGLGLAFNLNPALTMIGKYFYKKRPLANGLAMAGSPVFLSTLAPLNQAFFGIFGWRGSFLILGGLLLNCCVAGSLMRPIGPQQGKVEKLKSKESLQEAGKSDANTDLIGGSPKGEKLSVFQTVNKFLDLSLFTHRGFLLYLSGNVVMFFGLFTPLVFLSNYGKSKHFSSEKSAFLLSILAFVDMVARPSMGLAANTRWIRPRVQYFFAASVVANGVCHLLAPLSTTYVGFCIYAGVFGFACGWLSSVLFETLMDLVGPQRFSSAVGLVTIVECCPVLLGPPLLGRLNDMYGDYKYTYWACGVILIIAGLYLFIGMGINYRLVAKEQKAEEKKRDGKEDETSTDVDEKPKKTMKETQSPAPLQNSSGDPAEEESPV
Type: cell-based

N.N.N.N.N.N.N.N.N.N.N.N.N.N.[Cl-].[Cl-].[Cl-].[Cl-].[Cl-].[Cl-].[O-2].[O-2].[Ru+3].[Ru+3].[Ru+4] [Ruthenium red] was tested, and the Day1 was 0.2225, the Day2 was 0.8168 and the Fraction was 0.2724. The “Percent AZD3965” value was 78.0937% and the Z.score was -5.277.
With N#CC[C@@H](C1CCCC1)n1cc(-c2ncnc3[nH]ccc23)cn1 [S-Ruxolitinib (INCB018424)] the Day1 was 0.2084, the Day2 was 0.8208 and the Fraction was 0.2539. For the same compound, the “Percent AZD3965” value was 82.8995% and the Z.score was -5.127.
With NS(=O)(=O)c1ccc(-n2nc(C(F)(F)F)cc2-c2ccc(Cl)cc2)cc1 [SC-236, reference compound] the “Day1 (OD600 after 24 hours non-permissive dark conditions)” value was 0.3998, the “Day2 (OD600 after additional 24 hours permissive conditions)” value was 0.7794 and the “Percent AZD3965” value was 28.7982%. For the same compound, the Z-score was -1.956, the “Fraction (growth in non-permissive phase divided by growth in permissive phase)” value (10 μM) was 0.513 and the “Percent (percent AZD3965 score)” value (10 μM) was 28.7982%. For the same compound, the Z-score (10 μM) was -1.956.
For CS(=O)(=O)c1ccc(-n2nc(C(F)(F)F)cc2-c2ccc(F)cc2)cc1 [SC-58125], the “Percent AZD3965” value was -2.07% and the Z-score was 0.155.
In the case of CC1=C(C)C(=O)C(C(CCCCCC(=O)O)c2ccccc2)=C(C)C1=O (stereo not shown) [SERATRODAST], the “Percent AZD3965” value is reported as 84.979%.
CO[C@H]1C[C@@H]2CC[C@@H](C)[C@@](O)(O2)C(=O)C(=O)N2CCCC[C@H]2C(=O)O[C@H]([C@H](C)C[C@@H]2CC[C@@H](O)[C@H](OC)C2)CC(=O)[C@H](C)/C=C(\C)[C@@H](O)[C@@H](OC)C(=O)[C@H](C)C[C@H](C)/C=C/C=C/C=C/1C [SIROLIMUS] gave a Day1 of 0.1744, a Day2 of 0.7372 and a Fraction (10 μM) of 0.2366. The “Percent AZD3965” value (10 μM) was 83.2137% and the Z.score (10 μM) was -5.44.
In the case of Oc1ccc(Nc2nc(-c3ccc(Cl)cc3)cs2)cc1 [SKI II], the Day1 is reported as 0.1611, the Day2 is reported as 0.8012 and the Fraction is reported as 0.2011. For the same compound, the “Percent AZD3965” value was 91.1182% and the Z.score was -4.748.
With O=C(O)Cn1c(C(=O)Nc2nc(-c3ccccc3Cl)cs2)cc2ccccc21 [SR 27897 hydrate] the Fraction (10 μM) was 0.3212, the “Percent AZD3965” value (10 μM) was 63.9018% and the Z.score (10 μM) was -3.5958.
With COc1ccc(CCN(C)CCCOc2ccc(S(=O)(=O)c3c(C(C)C)c4ccccc4n3C)cc2)cc1OC.O=C(O)C(=O)O [SR 33805] the “Percent AZD3965” value was 61.5199%.
O=C(O)Cn1c(C(=O)Nc2nc(-c3ccccc3Cl)cs2)cc2ccccc21 [SR-27897] was tested, and the Day1 was 0.2576, the Day2 was 0.802 and the Fraction was 0.3212. The Offtarget_sub was 0.1161 and the Z.score was -3.5958.
In the case of COc1ccc(CCN(C)CCCOc2ccc(S(=O)(=O)c3c(C(C)C)c4ccccc4n3C)cc2)cc1OC.O=C(O)C(=O)O [SR-33805], the Day1 is reported as 0.336, the Day2 is reported as 0.901 and the Fraction is reported as 0.3729. The Offtarget_sub was 0.1773 and the Z.score was -3.805.
For OCc1ccccc1O[C@@H]1O[C@H](CO)[C@@H](O)[C@H](O)[C@H]1O [Salicin], the “Percent AZD3965” value was -5.623% and the Z-score was 0.4251.
In the case of OCc1ccccc1O [Salicyl alcohol], the “Percent AZD3965” value is reported as 5.564% and the Z-score is reported as -0.4215.
NC(=O)c1ccccc1O [Salicylamide] was tested, and the “Percent AZD3965” value was 4.251% and the Z-score was -0.3221.
For O=C(Oc1ccccc1C(=O)O)c1ccccc1O [Salsalate], the “Percent AZD3965” value was 15.525% and the Z-score was -1.067.
In the case of CC1=C(C)C(=O)C(C(CCCCCC(=O)O)c2ccccc2)=C(C)C1=O (stereo not shown) [Seratrodast], the Day1 is reported as 0.1847, the Day2 is reported as 0.7771 and the Fraction is reported as 0.2377. For the same compound, the Offtarget_sub was 0.0318 and the Z.score was -6.431.
For O=C1c2ccc(Nc3ccc(F)cc3F)cc2CCc2ccc(OC[C@H](O)CO)cc21 [Skepinone-L], the Day1 was 0.1972, the Day2 was 0.8545 and the Fraction was 0.2308. The Offtarget_sub was 0.0432, the “Percent AZD3965” value was 85.5135% and the Z.score was -4.456.
With CC1=C(CC(=O)O)c2cc(F)ccc2/C1=C\c1ccc(S(C)(=O)=O)cc1 [Sulindac sulfone] the “Percent AZD3965” value was 0.4063% and the Z-score was -0.02714.
Compound CC1=C(CC(=O)O)c2cc(F)ccc2/C1=C\c1ccc([S+](C)[O-])cc1 (stereo not shown) [Sulindac, reference compound] has a Day1 of 0.2243, a Day2 of 0.8596 and a Fraction of 0.2609. For the same compound, the Offtarget_sub was 0.079 and the Z.score was -3.5285.
With CCN(CC)CCNC(=O)c1c(C)[nH]c(/C=C2\C(=O)Nc3ccc(F)cc32)c1C.O=C(O)C[C@H](O)C(=O)O [Sunitinib Malate] the Day1 was 0.1757, the Day2 was 0.8667 and the Fraction was 0.2027. For the same compound, the Offtarget_sub was 0.0304, the “Percent AZD3965” value was 88.6606% and the Z.score was -4.054.
CC(C(=O)O)c1ccc(C(=O)c2cccs2)cc1 (stereo not shown) [Suprofen] was tested, and the “Percent AZD3965” value was -0.3761% and the Z-score was 0.01254.
Compound CCOC(=O)Oc1c(OC)cc(C(=O)O[C@@H]2C[C@@H]3CN4CCc5c([nH]c6cc(OC)ccc56)[C@H]4C[C@@H]3[C@H](C(=O)OC)[C@H]2OC)cc1OC [Syrosingopine] has a Day1 of 0.1298, a Day2 of 0.7758 and a Fraction of 0.1673. The Offtarget_sub was -0.0159 and the Z.score was -6.507.
Work on C=CC[C@@H]1/C=C(\C)C[C@H](C)C[C@H](OC)[C@H]2O[C@@](O)(C(=O)C(=O)N3CCCC[C@H]3C(=O)O[C@H](/C(C)=C/[C@@H]3CC[C@@H](O)[C@H](OC)C3)[C@H](C)[C@@H](O)CC1=O)[C@H](C)C[C@@H]2OC [TACROLIMUS] yielded a Day1 of 0.3533, a Day2 of 0.8731 and a Fraction (10 μM) of 0.4047. The “Percent AZD3965” value (10 μM) was 51.6792% and the Z.score (10 μM) was -3.3785.
Cc1ccc(S(=O)(=O)N[C@@H](Cc2ccccc2)C(=O)CCl)cc1 [TCPK] was tested, and the Day1 was 0.2366, the Day2 was 0.7851 and the Fraction was 0.3014. For the same compound, the Offtarget_sub was 0.0833 and the Z.score was -4.917.
Compound O=C1NC(=O)/C(=C\c2cccc(C(F)(F)F)c2)S1 [TCS PIM-1 4a] has a Day1 of 0.2915, a Day2 of 0.6732 and a Fraction of 0.433. The “Percent AZD3965” value was 50.7263% and the Z.score was -3.138.
O=C(O)Cc1cc(I)c(Oc2cc(I)c(O)c(I)c2)c(I)c1 [TETRAC] was tested, and the Day1 was 0.1866, the Day2 was 0.8316 and the Fraction was 0.2244. The Offtarget_sub was 0.0463, the Z.score was -4.108 and the Fraction (10 μM) was 0.2244. For the same compound, the “Percent AZD3965” value (10 μM) was 82.6554% and the Z.score (10 μM) was -4.108.
With CCCCCCC(=O)OC1CC(C)(C)NC(C)(C)C1.Cl [TMPH hydrochloride, reference compound] the “Day1 (OD600 after 24 hours non-permissive dark conditions)” value was 0.5599, the “Day2 (OD600 after additional 24 hours permissive conditions)” value was 0.8312 and the “Fraction (growth in non-permissive phase divided by growth in permissive phase)” value (10 μM) was 0.6736. The “Percent (percent AZD3965 score)” value (10 μM) was -2.347% and the Z-score (10 μM) was 0.1589.
O=[N+]([O-])c1ccc(CNc2nc(NCc3cccc(C(F)(F)F)c3)nc3[nH]cnc23)cc1 [TNP] gave a Day1 of 0.2699, a Day2 of 0.8663 and a Fraction of 0.3116. The Offtarget_sub was 0.1335, the Z.score was -4.697 and the Fraction (10 μM) was 0.3116. For the same compound, the “Percent AZD3965” value (10 μM) was 64.276% and the Z.score (10 μM) was -4.697.
With CSc1nc2cc(Cl)c(Oc3cccc(Cl)c3Cl)cc2[nH]1 [TRICLABENDAZOLE] the Day1 was 0.2135, the Day2 was 0.794 and the Fraction (10 μM) was 0.2689. For the same compound, the “Percent AZD3965” value (10 μM) was 78.824% and the Z.score (10 μM) was -3.978.

Read-outs that look alike come from different tables or passages of the source.
